Several values for one entry are separate records, joined by “and”; a condition that tells them apart may be missing. Equal entries are not always repeated. The campaign covered roughly 110,000 compounds. About 230 (0.21%) showed an effect of 50% or more. Some of the results follow.
target: DPAP1 (Plasmodium falciparum, UniProt Q8IIJ9); experiment: primary screen, percent inhibition; read by cleavage of a fluorogenic dipeptide substrate; higher = more effect of the substance; parameters: species or system P. falciparum D10 trophozoite lysates; single well
Sequence (Q8IIJ9 whole entry, looked up): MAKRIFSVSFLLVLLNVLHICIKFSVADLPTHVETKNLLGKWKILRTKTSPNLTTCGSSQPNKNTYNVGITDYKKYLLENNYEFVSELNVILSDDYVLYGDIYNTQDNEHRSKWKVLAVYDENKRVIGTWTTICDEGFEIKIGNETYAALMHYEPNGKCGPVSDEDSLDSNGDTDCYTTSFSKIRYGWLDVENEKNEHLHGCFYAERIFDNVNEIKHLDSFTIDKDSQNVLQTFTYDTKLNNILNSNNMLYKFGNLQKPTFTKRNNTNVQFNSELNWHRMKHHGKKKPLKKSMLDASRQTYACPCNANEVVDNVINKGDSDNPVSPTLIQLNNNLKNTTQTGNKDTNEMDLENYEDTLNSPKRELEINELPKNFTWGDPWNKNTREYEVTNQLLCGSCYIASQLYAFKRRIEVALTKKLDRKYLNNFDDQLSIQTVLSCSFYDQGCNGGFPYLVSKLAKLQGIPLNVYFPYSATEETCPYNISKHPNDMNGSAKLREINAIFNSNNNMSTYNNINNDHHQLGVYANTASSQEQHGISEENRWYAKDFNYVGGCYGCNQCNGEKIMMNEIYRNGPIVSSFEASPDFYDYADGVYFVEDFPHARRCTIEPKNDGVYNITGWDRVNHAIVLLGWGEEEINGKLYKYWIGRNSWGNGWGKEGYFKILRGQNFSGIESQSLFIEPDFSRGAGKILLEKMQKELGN
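Note: 30 min substrate incubation versus DMSO and 10 µM JCP410 controls.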

SMILES	% Inhibition @ 10 uM
CCOC(=O)N1CCN(C(=O)C2CC(c3ccc(OC)cc3)=NO2)CC1 (stereo not shown)	-3.45%
CC(C)NC(=O)CN1C(=O)C(=O)c2ccccc21	1.81%
N#CCNC(=O)[C@H](CCc1cc(Cl)ccc1Cl)NC(=O)OCc1ccccc1	-1.5%
COc1cccc(C(=O)NC(c2ccco2)c2cc(Cl)c3cccnc3c2O)c1 (stereo not shown)	-1.48%
CN(C)S(=O)(=O)c1ccc(N)c([N+](=O)[O-])c1	-6.22%
CC(C)N1C(=O)/C(=C/Nc2ccc(S(N)(=O)=O)cc2)C(=O)N(CCc2ccccc2)C1=O	1.4%
CCOC(=O)c1cc2c(=O)n3ccccc3nc2n(C(C)C)/c1=N\C(=O)c1ccc(C(C)(C)C)cc1	2.06%
COc1ccc(CC(=O)N2CCc3ccccc32)cc1	2.46%
O=C(Cn1ncc2c1-c1ccccc1OC2)N1CCN(Cc2ccc3c(c2)OCO3)CC1	1.72%
O=C(Nc1ccc(-c2nc3cc(Cl)ccc3o2)cc1)c1cccs1	-1.98%
CCN1C(=O)S/C(=C\c2ccc(N3CCOCC3)o2)C1=O	-4.02%
CCOc1ccccc1N1CCN(C(=O)C(C)Oc2cccc(Cl)c2)CC1 (stereo not shown)	1.27%
NC(=O)c1cc2n(n1)C(C(F)(F)F)CC(c1ccc(Cl)c(Cl)c1)N2 (stereo not shown)	2.38%
CC1=CN2C(=N)/C(=C/c3coc4ccccc4c3=O)C(=O)N=C2S1	-3.95%
COCCCNS(=O)(=O)c1ccc2[nH]c3c(c2c1)CCCCC3	-3%
COc1ccc(N2C(=O)CCc3c(-c4ccccc4)cc(N(C)C)cc32)cc1	1.63%
COCc1c(Br)c(C)nc2sc3c(=O)n(Cc4ccccc4)nnc3c12	4.13%
COc1cc2c(cc1C=O)OCO2	1.63%
CN1C(=O)NC(c2ccc(Br)cc2)C2=C1CCCC2=O (stereo not shown)	4.83%
CCNc1cc(N(C)C)nc(Oc2ccc(OCCOc3ccccc3C)nn2)n1	0.778%
COc1cc(C2C(C#N)=C(n3cccc3)OC3=C2C(=O)CCC3)cc(OC)c1OC (stereo not shown)	5.93%
Cn1ncc2c(NCCC3=CCCCC3)ncnc21	3.2%
CCNC(=O)CSc1nc2ccsc2c(=O)n1Cc1ccccc1Cl	5.46%
CC/C(=N\CCCn1ccnc1)c1c(C(F)(F)F)nn(-c2nc3ccccc3s2)c1O	4.55%
CN1CCN(C(=O)c2cc3nc(-c4ccccc4)cc(-c4ccccc4)n3n2)CC1	4.57%

SMILES	% Inhibition @ 10 uM
COc1ccccc1NC(=O)CN(Cc1ccc(Cl)cc1)S(=O)(=O)c1ccccc1	2.79%
CS(=O)(=O)C1=NN2C(=N)/C(=C\c3ccc(OCc4ccc5c(c4)OCO5)cc3)C(=O)N=C2S1	0.208%
Cc1oc2c(C)c3oc(=O)c(CC(=O)O)c(C)c3cc2c1-c1ccccc1	-4.75%
O=c1oc2ccccc2cc1C1=Nn2c(nnc2-c2ccc3c(c2)OCO3)SC1	13.3%
Cc1csc(NC(=O)CCc2c(C)nc3c4cccnc4nn3c2C)n1	1.62%
CCCCNC(=O)c1nc2ncc([N+](=O)[O-])cn2n1	-0.636%
CSc1cccc(NC(=O)CN(C2CCCCC2)S(=O)(=O)c2ccc(F)cc2)c1	-0.68%
O=C(Nc1ccc(S(=O)(=O)Nc2ncccn2)cc1)c1cccc(COc2ccccc2Cl)c1	4.01% and -2.74%
O=C(CCn1c(=O)[nH]c2ccsc2c1=O)N1CCN(c2ncccn2)CC1	-4.06%
CSc1ccc(CCNC(=O)Cc2c(C)nc3c(-c4ccccc4)c(C)nn3c2C)cc1	2.93%
COc1ccccc1CNS(=O)(=O)c1ccc2[nH]c3c(c2c1)CCCC3	1.46%
CCCOc1ccc(C2C(C#N)=C(N)OC3=C2C(=O)CC(C)(C)C3)cc1OC (stereo not shown)	-0.759%
Cc1cc(OCc2ccc(F)cc2)nc(-c2ccccc2O)n1	-0.239%
Cc1cccc(NS(=O)(=O)c2ccc([N+](=O)[O-])cc2)c1C	-3.27%
O=C(Cc1ccc(F)cc1F)Nc1ccc(Cl)cc1Cl	1.74%
O=C(C1CCCN(S(=O)(=O)c2cccnc2)C1)N1CCn2c1nc1ccccc12 (stereo not shown)	-1.03%
CC(C)(C)c1cc(N/C(=N\S(=O)(=O)c2ccccc2)c2ccccc2)no1	2.31%
CC1=[N+](CC(=O)NC(C)(C)C)CCc2ccccc21	-4.14%
CC(C)NC(=O)c1ccccc1-c1nc2ccccc2[nH]1	2.7%
CCc1nc2c(sc3nc(C)cc(COC)c32)c(=O)n1CCOC12CC3CC(CC(C3)C1)C2	2.62%
Cc1ccc(-n2nc3c(=O)n(CCCC(=O)N4CCN(Cc5ccccc5)CC4)nc(C)c3c2C)cc1	-4.57%
C=CCOc1ccc(CNC(C)(C)CO)cc1	-5.34%
O=C(c1ccc(CS(=O)c2cccc(Cl)c2)o1)N1CCN(C2CCCCC2)CC1 (stereo not shown)	6.15%
FC(F)(F)c1ccc(CN2CCN(c3ccccn3)CC2)cc1	-0.294%

— publication PMC6919601, “Identification of Plasmodium dipeptidyl aminopeptidase allosteric inhibitors by high throughput screening” (PLoS ONE, 2019)
